# The list shows a part of the results. Read counts after selection give these values, which scatter widely.
# System: Drosophila AGO1 (endogenous, S2-R+ lysate)
# Assay: AGO1 loading enrichment factor (IP read count / input read count, not library-size normalised) (ratio); higher = more efficient loading into AGO1
# Conditions: randomized region: 5' 5N of miR-317 loop
# Procedure: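 HISSA: 5'-phosphorylated, 32P-labelled 20-nt ssRNA oligos (miR-317 loop, first 5 nt randomized, constant 3' part TGAAATGCAAGCAAG as printed in methods; DNA letters for RNA) incubated 1 h at 25°C in S2-R+ cell lysate. Endogenous AGO1 was immunopurified with anti-AGO1 and bound oligos were sequenced after splinted ligation.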
# 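Note: S2-R+ lysate came from cells stably expressing FLAG-tagged AGO2, enrichment per 5N variant computed with FASTAptamer, reads lacking the constant 3′ segment discarded.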
row,Sequence,AGO1 loading enrichment factor
1,GGAGCTGAAATGCAAGCAAG,0.056
2,TACTATGAAATGCAAGCAAG,0.247
3,CGCGTTGAAATGCAAGCAAG,0.0424
4,ACCCTTGAAATGCAAGCAAG,0.00967
5,AGCAGTGAAATGCAAGCAAG,0.0465
6,GAGCTTGAAATGCAAGCAAG,0.228
7,TCGAGTGAAATGCAAGCAAG,0.344
8,TCAGATGAAATGCAAGCAAG,0.265
9,AGCGCTGAAATGCAAGCAAG,0.053
10,GCTCCTGAAATGCAAGCAAG,0.118
11,CCGTCTGAAATGCAAGCAAG,0.281
12,ATAATTGAAATGCAAGCAAG,0.139
13,TACATTGAAATGCAAGCAAG,0.655
14,AGTAATGAAATGCAAGCAAG,0.0795
15,TCGCATGAAATGCAAGCAAG,0.365
16,GAACCTGAAATGCAAGCAAG,0.288
17,CCTGGTGAAATGCAAGCAAG,0.138
18,TCGCCTGAAATGCAAGCAAG,0.636
19,CTCTTTGAAATGCAAGCAAG,0.135
20,GCGAATGAAATGCAAGCAAG,1.35
21,GCTAATGAAATGCAAGCAAG,0.123
22,GCGCATGAAATGCAAGCAAG,0.935
23,GCTTATGAAATGCAAGCAAG,0.00489
24,CCGGATGAAATGCAAGCAAG,0.234
25,GGAAGTGAAATGCAAGCAAG,0.292

row,Sequence,AGO1 loading enrichment factor
1,CAGGTTGAAATGCAAGCAAG,0.0799
2,GCTTCTGAAATGCAAGCAAG,0.0131
3,ATTAATGAAATGCAAGCAAG,0.136
4,TAGTATGAAATGCAAGCAAG,0.283
5,AAGACTGAAATGCAAGCAAG,0.368
6,CTATATGAAATGCAAGCAAG,0.138
7,CCCGTTGAAATGCAAGCAAG,0.107
8,GCGTCTGAAATGCAAGCAAG,0.147
9,TGCATTGAAATGCAAGCAAG,0.0206
10,GTTGGTGAAATGCAAGCAAG,0.131
11,GATATTGAAATGCAAGCAAG,0.122
12,ATAGCTGAAATGCAAGCAAG,0.0729
13,ACGTGTGAAATGCAAGCAAG,0.137
14,ACGACTGAAATGCAAGCAAG,1.25
15,TAGGGTGAAATGCAAGCAAG,0.488
16,CATGCTGAAATGCAAGCAAG,0.129
17,ACATATGAAATGCAAGCAAG,0.114
18,ACCTATGAAATGCAAGCAAG,0.187
19,GTATATGAAATGCAAGCAAG,0.104
20,CGGGATGAAATGCAAGCAAG,0.682
21,CATCCTGAAATGCAAGCAAG,0.134
22,ATCTTTGAAATGCAAGCAAG,0.0875
23,TTGGTTGAAATGCAAGCAAG,0.553
24,GACGCTGAAATGCAAGCAAG,0.378
25,AAAAATGAAATGCAAGCAAG,0.175

row,Sequence,AGO1 loading enrichment factor
1,TGTCTTGAAATGCAAGCAAG,0.017
2,TTACCTGAAATGCAAGCAAG,0.404
3,TGGTCTGAAATGCAAGCAAG,0.137
4,CAGACTGAAATGCAAGCAAG,0.209
5,TCCCCTGAAATGCAAGCAAG,1.41
6,CCGCGTGAAATGCAAGCAAG,0.0866
7,TCGATTGAAATGCAAGCAAG,0.239
8,ACAGGTGAAATGCAAGCAAG,0.165
9,CCCGGTGAAATGCAAGCAAG,0.178
10,TTGTCTGAAATGCAAGCAAG,0.16
11,ATCAATGAAATGCAAGCAAG,0.16
12,GGGGATGAAATGCAAGCAAG,4.06
13,GGAAATGAAATGCAAGCAAG,0.146
14,GAAAGTGAAATGCAAGCAAG,0.121
15,GATGTTGAAATGCAAGCAAG,0.141
16,CCGAGTGAAATGCAAGCAAG,0.104
17,TTGAATGAAATGCAAGCAAG,1.9
18,ATCACTGAAATGCAAGCAAG,0.174
19,TGGGGTGAAATGCAAGCAAG,1.71
20,CCAGGTGAAATGCAAGCAAG,0.0668
21,ATATTTGAAATGCAAGCAAG,0.134
22,AGACCTGAAATGCAAGCAAG,0.119
23,CACGTTGAAATGCAAGCAAG,0.0506
24,TGACCTGAAATGCAAGCAAG,0.147
25,ACTGGTGAAATGCAAGCAAG,0.153

row,Sequence,AGO1 loading enrichment factor
1,GAATCTGAAATGCAAGCAAG,0.135
2,GCTCTTGAAATGCAAGCAAG,0.0351
3,TCGGCTGAAATGCAAGCAAG,0.217
4,ATTATTGAAATGCAAGCAAG,0.119
5,ACCCATGAAATGCAAGCAAG,0.171
6,CTGGTTGAAATGCAAGCAAG,0.151
7,GTCAGTGAAATGCAAGCAAG,0.16
8,AGTCGTGAAATGCAAGCAAG,0.111
9,TCTTTTGAAATGCAAGCAAG,0.514
10,GTCACTGAAATGCAAGCAAG,0.216
11,TCTAATGAAATGCAAGCAAG,0.242
12,CTCATTGAAATGCAAGCAAG,0.196
13,AATTATGAAATGCAAGCAAG,0.126
14,TGTTCTGAAATGCAAGCAAG,0.0526
15,GTGAATGAAATGCAAGCAAG,0.62
16,CTCGCTGAAATGCAAGCAAG,0.00511
17,ACTTGTGAAATGCAAGCAAG,0.204
18,GATGCTGAAATGCAAGCAAG,0.0443
19,TCCCTTGAAATGCAAGCAAG,0.867
20,AACGCTGAAATGCAAGCAAG,0.135
21,GAAGATGAAATGCAAGCAAG,0.194
22,ACGATTGAAATGCAAGCAAG,0.191
23,GACCTTGAAATGCAAGCAAG,0.131
